Measured values taken from patent publication US20100330105A1, “Anticancer Combination Therapies” (priority 2006, published 2010).

What was measured:
TC-1 tumor cells = experiment: In vivo tumor protection experiments (vaccination, then TC-1 challenge, EGCG in drinking water); set-up: species or system C57BL/6 mice; settings: EGCG 0.5 mg/ml for 11 days; 42 days after TC-1 tumor challenge; all of the mice
E7-specific CD8+ T cells = experiment: Intracellular IFN-γ staining and flow cytometry of splenocytes, E7-specific CD8+ T cells (Example 1); settings: mice bearing tumors treated with only EGCG

epigallocatechin-3-gallate [EGCG]
tumor growth by inspection and palpation (TC-1 tumor cells): continued to demonstrate tumor growth | E7-specific T cell immunity (E7-specific CD8+ T cells): only weak E7-specific T cell immunity
